# In the supplement of paper PMC8728848:
# This is one part of the list.
# How the values were obtained:
# [1] = molecular target: Neu5Gc(a2-8)Neu5Gc(a2-6)Gal(b1-4)GlcNAc; assay: glycan array binding signal (z-score within array); higher = stronger binding; settings: glycan notation: IUPAC condensed, linker removed
# Method in brief: (§1)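 The binding signal is a Z-score computed within each array. Data were drawn from 3228 arrays in the Consortium for Functional Glycomics database, restricted to those with a known protein sequence. Scores were averaged over arrays of the same protein sequence at different concentrations or buffers, and over linkers, and negative values can be taken as non-binding.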
# [2] = molecular target: Neu5Gc(b2-6)Gal(b1-4)GlcNAc; assay: as above; settings: glycan notation: IUPAC condensed, linker removed
# Method in brief: as §1
binder,measurement,setting,value
PfulAvr4 (Pseudocercospora fuligena) (protein) HHHHHHDYKDDDDKTYVQDKTPAFVCPAADIKTTKCLGPKDCLYPSPKTCNGYIQCSPADDSYLTGIIHEMPCPSGLLWNDNKKWCDWPENTTCGLVKSAGATEVDATKQGPTPGKYHG,glycan array binding signal (z-score),[1],-0.134
same,glycan array binding signal (z-score),[2],-0.053
